According to PubChem BioAssay AID1671193 (National Center for Advancing Translational Sciences (NCATS), 2021):
About 180 (0.12%) of roughly 150,000 compounds were called active. This list was built around the results that the source calls inconclusive (neither active nor inactive); the mix of calls is not that of the screen. Calls follow the shape of the dose curve; as a rule, active = well fitted cell-killing curve with a large enough effect; inconclusive = small, poorly fitted or top-dose-only effect, or effect the other way; inactive = flat fitted curve, though single readings scatter. Potencies beside an inconclusive call are fits to weak or partial responses and may not hold up.

Test: GF-AFC viability counterscreen for inhibitors of alpha-synuclein gene (SNCA) expression; also: nearly all actives have a fitted effect of over 30% in size
Details: HEK-293-SNCA-luc viability, GF-AFC fluorescence, 24 h; series mostly up to 57.1 µM
Outline: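 HEK-293-SNCA-luc cells (1500/well) plated 24 h, then exposed 24 h to a dilution series; GF-AFC added 30 min at 37C, fluorescence 405/540 nm; normalised to medium-only and DMSO wells, Hill fit.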
Potency is read from the fitted curve at half-maximal effect; tags tell the direction and shape of the fitted curve.

| Compound | Potency |
| --- | --- |
| CCN1c2cc(C(=O)NC3CCCCC3)ccc2C(=O)N2CCCCC21 (configuration not stated) | inconclusive: 7.08 µM [rising, single point] |
| CC(C)=CCC/C(C)=C/CC/C(C)=C/COC1OC(COC2OCC(OC3OCC(O)C(O)C3O)C(O)C2O)C(O)C(OC2OC(C)C(OC3OC(C)C(OC4OCC(OC5OC(C)C(O)C(O)C5O)C(O)C4O)C(O)C3O)C(O)C2O)C1O (configuration not stated) | inconclusive: 1.27 µM [rising, single point] |
| CC(C)C[C@@H]1N[C@H](C(=O)NC2CC2)Cc2cn(Cc3nccn3C)c3cccc1c23 | inconclusive: 44.7 µM [cytotoxic, single point] |
| Cc1nn2c(c1-c1ccccc1Oc1ccccc1)N(Cc1ccccc1O)CCC2 | inconclusive: 3.16 µM [cytotoxic, full curve] |
| COc1ccccc1-c1nc2cnccn2c1NCCC(=O)Nc1cc(F)ccc1F | inconclusive: 31.6 µM [rising, single point] |
| CC(C)c1ccc2occ(CC(=O)Nc3cccc(C(F)(F)F)c3)c2c1 | inconclusive: 39.8 µM [cytotoxic, single point] |
| COc1cccc(NC(=O)c2cnc3c(c2)N(C(=O)Cc2cn(C)c4ccccc24)CCC3)c1 | inconclusive: 35.5 µM [cytotoxic, single point] |
| O=C(Cc1ccc(F)cc1)Nc1cc(-c2cccnc2)nn1-c1ccccc1 | inactive |
| O=C(COc1ccccc1)NCC1CCCCC(=O)N1 (configuration not stated) | inconclusive: 10 µM [rising, partial curve] |
| CC[C@@H]1C(=O)N(C)c2cnc(Nc3ccc(C(=O)NC4CCN(C)CC4)cc3OC)nc2N1C1CCCC1 | inconclusive: 24.1 µM [cytotoxic, partial curve, poor fit] |
| COC(=O)c1ccc2nc(C[C@@H]3C[C@@H](C(C)C)[C@H](CNC4CCN(C)CC4)C=C3C)[nH]c2c1 | inactive |
| COc1cc(NC(=O)Cn2c(=O)nc(-c3ccccc3F)c3cc(Cl)ccc32)cc(OC)c1 | inconclusive: 39.8 µM [cytotoxic, single point] |
| O=C1Nc2ccccc2OCC12CCN(CC1CCCCC1)CC2 | inconclusive: 3.55 µM [cytotoxic, partial curve, poor fit] |
| O=C(Cn1nc2c(cc1=O)CCCCC2)Nc1nccs1 | inactive |
| CCc1ccc(NC(=O)c2cc(S(=O)(=O)N3CCCCC3)c[nH]2)cc1 | inactive |
| CC(C)CNc1ccc2c(n1)C(C)(C(=O)NC(C)C)CN(Cc1ccccc1)C2 (configuration not stated) | inconclusive: 35.5 µM [cytotoxic, single point] |
| CCOC(=O)C1CCCN(C(=O)c2nc3sccn3c2-c2ccc(C(F)(F)F)cc2)C1 (configuration not stated) | inactive |
